Among the data in article PMC10668032 are binding signal values, retold here.

The list shows a part of the results. At the low end of the ranking the order means little.

The target in the test is SIX1-Q177R homeodomain (UniProt Q15475). As to the kind of experiment: universal protein binding microarray. Conditions: Universal all-10-mer PBM (8x60K, AMADID 030236), 300 nM GST-tagged protein, Alexa Fluor 488 anti-GST; buffer, salt, pH and temperature not stated; high values mean tight binding; most listed sequences are background and not binding sites; double strand, one strand shown.
As for CGCAGGAG, the binding signal was determined as 0.00546 E-score. For ACTCTTAC, the binding signal came out at 0.0596 E-score.

Take GGCTCTTA: the binding signal was -0.166 E-score. With ACGGGTTG, the binding signal came out at 0.0529 E-score. As to ACTTCACA, the binding signal stood at 0.107 E-score. As for AGTAGAGC, the binding signal came to 0.0505 E-score. With CGCAGATA the figure was -0.0204 E-score; with ACGTTCGA, -0.0846 E-score. With CATTACAC the figure was 0.452 E-score; with GCTTAGAA, -0.141 E-score; with CCAACTTC, -0.131 E-score. For GGTATACA, the binding signal stood at 0.269 E-score. As to CTTTTCAC, the binding signal is -0.0851 E-score. CTAAAAGC: the binding signal is -0.219 E-score.

In the case of ACTTTGTG, the binding signal amounted to 0.0232 E-score.

AGGTTGTG: the binding signal is -0.0166 E-score. Consider CAGTTAGG, for which the binding signal worked out at 0.0169 E-score. ACGGTACT: the binding signal was -0.00834 E-score. GCACAGCA: the binding signal is -0.18 E-score. CAGAGCTA: the binding signal was -0.216 E-score. ACACAACC: the binding signal worked out at 0.219 E-score.

As for AGTGATAC, the binding signal is 0.265 E-score. Consider ATCCCGGC, for which the binding signal was -0.00965 E-score. On to AGCATATC, for which the binding signal is -0.103 E-score.

With GAGTCTCC, the binding signal was -0.0955 E-score. With CACCTTGC, the binding signal stood at 0.258 E-score. As for GTACTTGA, the figure is 0.0461 E-score; as for GGGTCGGA, 0.227 E-score.

As to CAACTAAG, the binding signal is -0.218 E-score. On to AGGTAAAC, for which the binding signal was -0.00181 E-score. AAGTTCCG: the binding signal was -0.186 E-score. In the case of GGAGATGA, the binding signal was 0.037 E-score.

For the sequence ACTAAAGA, the binding signal amounted to 0.0411 E-score. For CACAGTAA, the binding signal was -0.192 E-score.

In the case of CCTTCGAA, the binding signal was determined as 0.0216 E-score.

In the case of CCTTTGCG, the binding signal amounted to 0.0933 E-score. With GGGCGCCC the figure was -0.108 E-score.

For CAGACTAA, the binding signal is -0.189 E-score. Take CGATACGC: the binding signal was found to be 0.0597 E-score. Turning to GCCACGCA, the binding signal is -0.1 E-score. With ATATGGTC the figure was -0.0787 E-score; with AAAAGGAT, 0.0452 E-score.

As for AACTGCGA, the binding signal is -0.172 E-score. For AGCGCAAC, the binding signal is -0.18 E-score. Turning to ATATTGGG, the binding signal was determined as 0.115 E-score. In the case of AGCTCGAT, the binding signal was -0.0248 E-score. As for AAGGTATC, the binding signal was 0.251 E-score. With CCTCCAGC the figure was 0.0334 E-score; with GCTTTTAC, 0.0428 E-score.

With TCGATCGA, the binding signal amounted to 0.078 E-score. Take CCGCTAAA: the binding signal is -0.125 E-score.

In the case of CGTTTAAC, the binding signal is -0.173 E-score.

ATTTCCCA: the binding signal is -0.047 E-score.

On to ACGCCCAG, for which the binding signal was found to be 0.192 E-score. With ATGGTAAC the figure was 0.12 E-score; with AGAGCGGC, -0.124 E-score; with TAAAGACA, 0.147 E-score.

With AACCTGAC, the binding signal was -0.0626 E-score. With GGCGTTTA the figure was -0.0256 E-score; with ACTCGTCT, -0.0328 E-score.

Take AAACGGAT: the binding signal is 0.051 E-score. For AGAACCAG, the binding signal was -0.0378 E-score. Turning to ATTACCGC, the binding signal is -0.219 E-score.

For CGTCCTTA, the binding signal is -0.00731 E-score. With CTGAACCC the figure was 0.187 E-score; with ACCTCGAA, -0.0704 E-score; with CTGCCAGC, -0.266 E-score. Take GCATGCCC: the binding signal was -0.157 E-score. In the case of GTGTAATA, the binding signal came out at 0.451 E-score. With ATACGATC, the binding signal is -0.057 E-score. CTAAGCCA: the binding signal was -0.205 E-score. CACGTGTA: the binding signal is 0.4 E-score. Consider ACACGCCG, for which the binding signal was 0.404 E-score. Consider AGCATTAT, for which the binding signal is -0.247 E-score. As for CTTATATA, the figure is -0.139 E-score; as for AGCTTAAT, -0.138 E-score. In the case of ATGGACTA, the binding signal is -0.236 E-score. On to AAGAATAA, for which the binding signal is -0.0242 E-score. With TAGAGCCA the figure was -0.128 E-score; with ACGATCAT, -0.232 E-score.

For the sequence CGGACATA, the binding signal amounted to 0.0379 E-score. On to GCCCGTCC, for which the binding signal is 0.0148 E-score. Turning to GGTTTATA, the binding signal was determined as 0.0753 E-score. Consider CGTTATCA, for which the binding signal was -0.0947 E-score. Consider AATACCTG, for which the binding signal is -0.12 E-score. Take CGTTTGAC: the binding signal is -0.0265 E-score.

Regarding CCGTGGCG, the binding signal is -0.0351 E-score. As for CCATAGAC, the figure is -0.0169 E-score; as for AGTAAGGC, -0.144 E-score; as for TACTTTGA, -0.0537 E-score. For AATACATT, the binding signal was -0.177 E-score.

For the sequence GTCTGCGA, the binding signal is -0.0828 E-score. AGTTAGTA: the binding signal was -0.0843 E-score. TCATCACA: the binding signal is -0.013 E-score. GGCATCGA: the binding signal was -0.175 E-score.

Consider ATGATTCG, for which the binding signal was -0.118 E-score. As for CTTAACGA, the figure is -0.092 E-score; as for GACGATAC, 0.205 E-score. On to GCCCACAA, for which the binding signal was -0.225 E-score. For CTTATCTA, the binding signal was -0.0791 E-score. Turning to AGTTTTTC, the binding signal is -0.123 E-score. Consider GCGGGTCC, for which the binding signal was 0.0506 E-score.

With ATTGAGAC, the binding signal was determined as 0.0498 E-score. Regarding CAGTGTCG, the binding signal was 0.444 E-score.

As for AGCAAACC, the binding signal was found to be 0.037 E-score. As for GGAGCTGA, the figure is -0.0693 E-score; as for CCTTGAAC, -0.0734 E-score. Turning to ACTACTTG, the binding signal came to 0.144 E-score. Turning to GCGGCTGA, the binding signal was -0.24 E-score.

Regarding ACAGGGTC, the binding signal is 0.0966 E-score. As for CTTTCATC, the figure is -0.198 E-score. As to ACGTGTTC, the binding signal is 0.314 E-score. CGGGGGCC: the binding signal amounted to 0.0843 E-score. As for GACTATCC, the figure is -0.0197 E-score; as for CTTTACCA, -0.0295 E-score. With GCGCTGCC the figure was 0.0245 E-score; with CCCCCGAC, 0.272 E-score.

With ATCGGTAC, the binding signal is -0.091 E-score. With TCACGTGA the figure was -0.095 E-score; with ACCCATCT, 0.105 E-score; with CGCGTGAA, 0.0894 E-score. With CTGATGGA the figure was -0.213 E-score; with AACAACGT, -0.153 E-score. With ATAGCACC, the binding signal worked out at 0.205 E-score. Take GGGGTGAC: the binding signal is 0.16 E-score.

ATAGGGGG: the binding signal amounted to 0.259 E-score. With ATCGCCAT the figure was -0.181 E-score; with AATCTACA, 0.22 E-score.

Take AACTACTC: the binding signal was determined as 0.106 E-score. Consider TAACAGGA, for which the binding signal is 0.103 E-score.

On to ACTTATAT, for which the binding signal was -0.19 E-score. In the case of ACCGCCAA, the binding signal amounted to 0.0346 E-score. Take GTCAGAGA: the binding signal is -0.104 E-score. Take ACCTGAAC: the binding signal is 0.0806 E-score. For CAGATTGC, the binding signal was -0.169 E-score. As for GTGGACTA, the figure is 0.139 E-score. For CCTATGAA, the binding signal was -0.18 E-score. As for TGTCCACA, the binding signal is 0.205 E-score.

Turning to ACGCTAGA, the binding signal is 0.00153 E-score.

For TTACCGAA, the binding signal turned out to be 0.00217 E-score. Regarding GCAACTAC, the binding signal was found to be 0.0937 E-score. For the sequence TAAAGGGA, the binding signal came out at 0.116 E-score. Take CTACAATA: the binding signal is -0.00204 E-score. With CTACTAAC the figure was 0.181 E-score. In the case of TCCTACAA, the binding signal is -0.0386 E-score. As for GATTTAGA, the figure is -0.123 E-score; as for TGATGACA, 0.127 E-score.

Turning to CGAGGCCG, the binding signal is -0.192 E-score. Take GCGTTAAC: the binding signal is 0.0942 E-score. Regarding AGGCCGAA, the binding signal is 0.00559 E-score. For CCAATCAG, the binding signal is -0.205 E-score. Turning to CCTTCACG, the binding signal is -0.0716 E-score.

For CATTAGCC, the binding signal was -0.283 E-score.

ATTGTGCA: the binding signal was found to be 0.0262 E-score. As to GACCCGTA, the binding signal is 0.122 E-score. As for CATTGGTA, the figure is -0.177 E-score; as for CGGTCTGC, -0.194 E-score; as for GCACGTGC, 0.125 E-score. As to CCTCGTCG, the binding signal is -0.0642 E-score. Turning to ATATATTC, the binding signal is -0.0643 E-score. With ACCTTCAC the figure was -0.00915 E-score; with GGCTTACC, 0.0049 E-score. As to ATGGATTC, the binding signal was -0.0689 E-score. Regarding ATAACCGG, the binding signal stood at 0.0312 E-score. Consider CCCGCAAG, for which the binding signal came out at 0.0989 E-score. As for CAGTCAGC, the binding signal was -0.256 E-score.

As to ATAATTCG, the binding signal is -0.161 E-score. With CAGTATTA, the binding signal was -0.0523 E-score. As to GACAGGCA, the binding signal was -0.178 E-score. On to CGGAGCCA, for which the binding signal is -0.0669 E-score. For the sequence ACGGCGGA, the binding signal is 0.148 E-score. As for CGCACTCC, the binding signal was determined as 0.0979 E-score.
